Among all 350,000 compounds or so, about 31,000 (8.9%) were called active. This list was built around the results that the source calls inconclusive (neither active nor inactive); the mix of calls is not that of the screen. Calls follow the shape of the dose curve; as a rule, active = well fitted inhibition curve with a large enough effect; inconclusive = small, poorly fitted or top-dose-only effect; inactive = no such curve, though single readings can be large or run the other way. Potencies beside an inconclusive call are fits to weak or partial responses and may not hold up.
What follows are compounds tested against Histone-lysine N-methyltransferase EHMT2 (Homo sapiens) (UniProt Q96KQ7) (assay: qHTS Assay for Inhibitors of Histone Lysine Methyltransferase G9a). Details: G9a H3K9 monomethylation, AlphaScreen, 2 h; activity, negative = inhibition: at 59 µM (top of the series) unless noted.
Chain of UniProt Q96KQ7 (Q96KQ7 whole entry, looked up): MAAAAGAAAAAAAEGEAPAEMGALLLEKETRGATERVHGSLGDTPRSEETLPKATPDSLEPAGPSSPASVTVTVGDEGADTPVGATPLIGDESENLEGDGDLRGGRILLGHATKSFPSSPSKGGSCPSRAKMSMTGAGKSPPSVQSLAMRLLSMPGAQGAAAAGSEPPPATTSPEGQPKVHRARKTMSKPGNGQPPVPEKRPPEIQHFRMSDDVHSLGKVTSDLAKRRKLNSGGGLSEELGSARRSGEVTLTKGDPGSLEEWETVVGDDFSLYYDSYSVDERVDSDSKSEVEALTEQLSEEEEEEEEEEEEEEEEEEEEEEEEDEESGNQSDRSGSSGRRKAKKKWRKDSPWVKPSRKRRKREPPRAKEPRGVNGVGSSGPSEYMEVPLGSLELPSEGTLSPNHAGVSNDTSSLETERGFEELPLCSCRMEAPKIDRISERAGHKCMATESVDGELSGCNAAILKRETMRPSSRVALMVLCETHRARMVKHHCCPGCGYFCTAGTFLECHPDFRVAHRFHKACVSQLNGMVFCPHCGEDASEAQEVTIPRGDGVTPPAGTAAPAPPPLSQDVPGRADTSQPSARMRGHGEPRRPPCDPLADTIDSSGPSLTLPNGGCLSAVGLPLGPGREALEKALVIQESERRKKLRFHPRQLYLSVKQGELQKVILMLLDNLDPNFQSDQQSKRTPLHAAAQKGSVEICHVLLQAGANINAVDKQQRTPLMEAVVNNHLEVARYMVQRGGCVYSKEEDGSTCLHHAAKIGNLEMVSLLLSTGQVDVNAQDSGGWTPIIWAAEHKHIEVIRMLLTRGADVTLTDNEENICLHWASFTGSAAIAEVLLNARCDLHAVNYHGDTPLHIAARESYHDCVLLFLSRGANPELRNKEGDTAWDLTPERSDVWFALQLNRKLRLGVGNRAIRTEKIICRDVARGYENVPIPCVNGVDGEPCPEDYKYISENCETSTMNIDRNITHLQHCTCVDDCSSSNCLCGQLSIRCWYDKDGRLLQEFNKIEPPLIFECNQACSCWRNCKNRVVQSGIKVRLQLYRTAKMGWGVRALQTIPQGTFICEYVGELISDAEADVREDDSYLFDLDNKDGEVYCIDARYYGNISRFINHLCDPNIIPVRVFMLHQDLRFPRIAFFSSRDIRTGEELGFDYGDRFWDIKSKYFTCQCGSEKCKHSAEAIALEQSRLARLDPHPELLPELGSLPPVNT
In short: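 Compounds were preincubated with 20 nM G9a for 15 min, after which biotinylated H3K9 peptide (500 nM) and SAM (20 uM) started a 2 h room-temperature reaction. Monomethylated product was quantified by antibody-based AlphaScreen chemiluminescence.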
% is scaled to controls: 0 for no effect and ±100 for the full control effect; potency is read from the fitted curve at half-maximal effect; tags tell the direction and shape of the fitted curve.
Also: nearly all actives have a fitted effect of over 75% in size.

| Structure (SMILES) | Potency | activity, negative = inhibition |
| --- | --- | --- |
| COCCn1c(=NC(=O)c2cc(Cl)sc2Cl)sc2cc(S(N)(=O)=O)ccc21 | active: 28.2 µM | – |
| CCOC(=O)N1CCC2(CC1)C(C#N)=C(N)Oc1n[nH]c(C)c12 | inconclusive: 89.1 µM [inhibitor, single point] | – |
| CCCOc1ccc(-c2csc(N)n2)cc1[N+](=O)[O-] | inconclusive: 28.2 µM [inhibitor, single point] | – |
| CCN(CC(=O)Nc1ccc(OC)cc1)C(=O)CCc1nc2ccccc2c(=O)[nH]1 | – | inactive: -11.7% [at 0.501 µM] |
| O=C(O)CN1CCN(Cc2ccc(F)cc2)C1=O | inconclusive: 89.1 µM [inhibitor, single point] | – |
| Cc1cccc(N(C(=O)c2nsc(Cl)c2Cl)C(C(=O)NC2CCCC2)c2ccc(O)cc2)c1C (stereo not given) | inconclusive: 3.16 µM [inhibitor, partial curve, poor fit] | – |
| COC(=O)c1cccc(N2C(=O)C3C4C=CC(CC4)C3C2=O)c1 (stereo not given) | inconclusive: 89.1 µM [inhibitor, single point] | – |
| CCc1cccc(NC(=O)COC(=O)c2cc([N+](=O)[O-])ccc2N2CCOCC2)c1 | inconclusive: 20 µM [inhibitor, partial curve, poor fit] | – |
| O=C(CNc1cc(S(=O)(=O)N2CCOCC2)ccc1N1CCCC1)NCc1ccco1 | inconclusive: 79.4 µM [inhibitor, single point] | – |
| Cc1ccc(N=Nc2c(=O)[nH]n3c(=O)cc(C)[nH]c23)cc1 | inconclusive: 0.794 µM [inhibitor, full curve, poor fit] | – |
| O=C(NCc1ccco1)C1CCN(C(=O)c2cc3sccc3n2Cc2ccc(Cl)cc2)CC1 | inconclusive: 79.4 µM [inhibitor, single point] | – |
| NC(=O)C1CCN(C(=O)COc2ccc3c4c(c(=O)oc3c2)CCCC4)CC1 | inactive | – |
| Cc1ccc2sc(NNC(=O)c3cc(-c4cccs4)nc4ccccc34)nc2c1C | active: 31.6 µM | – |
| CC(=O)Nc1ccc(S(=O)(=O)n2cnc3cc(C)c(C)cc32)cc1 | inconclusive: 31.6 µM [inhibitor, single point] | – |
| CCCN(CCC)CCCNC(=O)c1cc2c(=O)n(C)c3ccccc3c2s1 | inactive | – |
| COc1ccc(OC)c(-n2c(-c3cccc(O)c3)n[nH]c2=S)c1 | active: 1.26 µM | – |
| CC(=O)Nc1ccccc1-c1nc2ccccc2n(C(C)C(=O)Nc2ccccc2C(F)(F)F)c1=O (stereo not given) | inconclusive: 39.8 µM [inhibitor, partial curve, poor fit] | – |
| COc1ccc(-n2cc(CNCC3CC(=O)N(C4CC4)C3)c(-c3ccccc3Cl)n2)cc1 (stereo not given) | inconclusive: 2.82 µM [inhibitor, partial curve, poor fit] | – |
| COc1ccc(-c2c(C)c3ccc(O)c(CN4CCC(C)CC4)c3oc2=O)cc1OC | inactive | – |
| CC1CC1c1ccc(/C=C(\C#N)C(=O)Nc2cc(Cl)ccc2Cl)o1 (stereo not given) | inconclusive: 12.6 µM [inhibitor, single point] | – |
| CC(NC(=O)c1cc(S(=O)(=O)N2CCOCC2)ccc1N1CCCC1)c1ccc(Cl)c(Cl)c1 (stereo not given) | inconclusive: 89.1 µM [inhibitor, single point] | – |
| COc1cccc(NC(=O)NCc2c(-c3ccccc3)noc2C)c1 | inactive | – |
| N#Cc1ccccc1S(=O)(=O)N1CCN(CC(O)c2ccccc2)CC1 (stereo not given) | active: 15.8 µM | – |

| Structure (SMILES) | Potency | activity, negative = inhibition |
| --- | --- | --- |
| COc1ccc(OCC(=O)NCCC2=CCCCC2)c([N+](=O)[O-])c1 | inconclusive: 25.1 µM [inhibitor, partial curve, poor fit] | – |
| CCOc1c(Br)cc(CNc2ccc3c(c2)OCCO3)cc1OC | active: 3.16 µM | – |
| COc1cccc(CNC(=O)c2ccc(-c3nc(CSc4ccccc4)c(C)o3)cc2)c1 | inactive | – |
| Cc1csc(=O)n1CC(=O)OCC(=O)NCc1ccc(F)cc1 | – | inactive: -5.27% [at 0.501 µM] |
| CC(=O)c1ccc(N2C(=O)C3C4C=CC(CC4)C3C2=O)cc1 (stereo not given) | inactive | – |
| CN(C(=O)c1nn(C)c2c1CSc1ccccc1-2)c1ccccc1Cl | inconclusive: 89.1 µM [inhibitor, single point] | – |
| CC1=Nn2c(nnc2-c2ccccc2F)SC1 | – | inactive: -45.4% [at 12.7 µM] |
| NNC(=O)c1ccc(OCC2CC(c3ccc(Cl)cc3)=NO2)cc1 (stereo not given) | inconclusive: 79.4 µM [inhibitor, single point] | – |
| COc1cc(OC)c(OC)cc1/C=C/c1nc2cc3ccccc3cc2c(=O)n1-c1ccccc1Br | inconclusive: 14.1 µM [inhibitor, partial curve] | – |
| Cc1ccc(CNC(=O)c2cc(=O)c3cc(C)ccc3o2)cc1 | inconclusive: 25.1 µM [inhibitor, partial curve, poor fit] | – |
| Cc1cccc(N2CCN(C3=C(c4ccccc4)C(=O)c4ccccc43)CC2)c1C | active: 3.55 µM | – |
| O=C(O)c1cccc(S(=O)(=O)N2CCN(S(=O)(=O)c3ccc4ccccc4c3)CC2)c1 | inconclusive: 50.1 µM [inhibitor, partial curve] | – |
| Nc1nonc1C(=O)NCCN=Cc1ccccc1O | – | inactive: 0.0929% [at 0.0925 µM] |
| COc1cccc(CN2CCN(Cc3ccccc3C(F)(F)F)CC2)c1 | active: 4.47 µM | – |
| COc1ccc(Cl)cc1S(=O)(=O)N1CCN(CC(=O)C(C)(C)C)CC1 | active: 44.7 µM | – |
| Fc1ccc(CN2CCCCCC2)c(F)c1 | – | inactive: -8.87% [at 12.7 µM] |
| COc1ccc(S(=O)(=O)Nc2ccc(S(=O)(=O)N(C)C)cc2)cc1[N+](=O)[O-] | inconclusive: 89.1 µM [inhibitor, single point] | – |
| Cc1ccc(S(=O)(=O)N(C)C)cc1NC(=S)NCc1ccco1 | inconclusive: 28.2 µM [inhibitor, single point] | – |
| Cc1ccc(S(=O)(=O)N2CCN(Cc3ccccc3Cl)CC2)cc1 | active: 1.26 µM | – |
| NC(C(=O)O)c1cc(O)c(Cl)c(O)c1 (stereo not given) | inactive | – |
| Cc1cccc(NC(=O)CN2C(=O)C3(SCC(=O)N3c3ccccc3)c3ccccc32)c1 (stereo not given) | inactive | – |
| Cc1ccc(Cn2c(C(=O)O)c(CNCc3ccc(C)o3)c3ccc(C)cc32)cc1 | inconclusive: 25.1 µM [inhibitor, partial curve, poor fit] | – |

Reference: PubChem BioAssay AID504332 (National Center for Advancing Translational Sciences (NCATS), 2011)
